Source: patent EP4799696A2 (Regeneron Pharmaceuticals, Inc., dated 2026)

Target: T1, human VEGF165 (human, UniProt P15692-4 27-191)
T1 construct: Only named as the VEGF component of the VEGF:aflibercept complex measured by ELISA in plasma
T1 sequence (looked up): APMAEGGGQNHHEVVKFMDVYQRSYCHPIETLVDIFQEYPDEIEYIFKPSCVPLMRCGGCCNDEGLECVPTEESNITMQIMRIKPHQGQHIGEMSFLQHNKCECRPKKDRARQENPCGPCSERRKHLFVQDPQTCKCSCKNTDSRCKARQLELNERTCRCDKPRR
Experiment: ELISA of the VEGF:aflibercept complex in plasma of treated participants (PK assay)

B1: aflibercept (Fc fusion)
chain: SDTGRPFVEMYSEIPEIIHMTEGRELVIPCRVTSPNITVTLKKFPLDTLIPDGKRIIWDSRKGFIISNATYKEIGLLTCEATVNGHLYKTNYLTHRQTNTIIDVVLSPSHGIELSVGEKLVLNCTARTELNVGIDFNWEYPSSKHQHKKLVNRDLKTQSGSEMKKFLSTLTIDGVTRSDQGLYTCAASSGLMTKKNSTFVRVHEK[in this place human IgG1 Fc]
notes: also called VEGF Trap; VEGF1R2-FcΔC1(a)
B1: binds.
